Here are results for 45 compounds from ChEMBL document CHEMBL4888484, “Replenishing the malaria drug discovery pipeline: Screening and hit evaluation of the MMV Hit Generation Library 1 (HGL1) against asexual blood stage Plasmodium falciparum ,using a nano luciferase reporter read-out” (2022).

SMILES strings stand for the structures. In all, about 150,000 compounds went through this assay and about 540 (0.36%) showed an effect of 50% or more. The list shows a part of the results.

The % Inhibition is the drop in the measured response relative to a control, in per cent.

The subject of the test is Plasmodium falciparum. Put plainly: Primary screen in NF54 nanoGlo assay, in single point, at 2uM, 72h; a lower Z score goes with more inhibition. The settings on record: timepoint 72 hour. The format is functional, Erythrocyte.
`CC(c1cnn(C)c1)c1nc(C2CCOC3(CCC3)C2)no1` (stereo not given): the “% Inhibition” value is reported as -15% and the Z score was determined as 3.07.

`CCCCc1nc(N2CCOCC2)c(C#N)c2c1COC(C)(C)C2`: the “% Inhibition” value is given as -7% and the Z score was determined as 1.09.

As for `COc1cccc(N2CCN(C(=O)c3cc4c(=O)n(C)ccc4n3C)CC2)c1`, the “% Inhibition” value was -12% and the Z score stood at 1.21.

On to `COc1ccc(-c2ccnc3nc(C4CC4)nn23)c(F)c1`, for which the “% Inhibition” value is given as -4% and the Z score is listed as 0.45.

`O=C(OC[C@H]1CCCCO1)N1CCC(S(=O)(=O)Cc2ccccc2)CC1`: the “% Inhibition” value is reported as -10% and the Z score turned out to be 1.59.

On to `COc1ccc(CN2CCN(C(=O)c3ccc4[nH]cnc4c3)CC2)cn1`, for which the “% Inhibition” value is recorded as 0% and the Z score is -0.03.

Regarding `Cc1csc([C@@H](NCc2ccccc2N(C)C)C2CC2)n1`, the “% Inhibition” value amounted to 2% and the Z score is reported as -0.16.

Take `CC1CN(CCO)CCN1C(=O)C(O)C1CCC1` (stereo not given): the “% Inhibition” value was -1% and the Z score stood at 0.2.

`COc1nc2c(cc1CNC(=O)CN1CCCCC1)C(=O)N(C1CCCC1)C2`: the “% Inhibition” value was -20% and the Z score was found to be 2.3.

`CC(NC(C)c1ccccc1Oc1ccccc1)c1cnccn1` (stereo not given): the “% Inhibition” value is listed as -6% and the Z score turned out to be 0.84.

For `O=C(c1cnc2[nH]nnc2c1)N1CCCC2(CCCCC2)C1`, the “% Inhibition” value is -14% and the Z score was found to be 2.41.

For the compound `COc1ccc(CC(=O)Nc2ccc3[nH]c(=O)sc3c2)cc1`, the “% Inhibition” value was determined as 2% and the Z score is reported as -0.29.

For the compound `N#CCCn1cc(CN2CCS(=O)(=O)CC2)c(-c2ccccc2)n1`, the “% Inhibition” value is -7% and the Z score amounted to 1.08.

`CCN1C(=O)[C@@H]2CC3(CCN(Cc4ccc(C(F)(F)F)cc4)CC3)CN2C1=O`: the “% Inhibition” value is given as -2% and the Z score worked out at 0.36.

For the compound `CC(C)c1nc(-c2ccc(C(=O)N3CCN(c4nc5ncccc5o4)CC3)cc2)no1`, the “% Inhibition” value is -5% and the Z score is 0.91.

With `Cc1nccn1-c1cc(CNC(=O)c2ccsc2)ccn1`, the “% Inhibition” value amounted to 35% and the Z score is -3.97.

On to `O=C(C1CCCO1)N1CCNCC1c1cccnc1` (stereo not given), for which the “% Inhibition” value is listed as -10% and the Z score worked out at 1.93.

On to `O=C(CN1CCCCCC1=O)N1CCN(S(=O)(=O)c2ccc3c(c2)CCCC3)CC1`, for which the “% Inhibition” value is -1% and the Z score is listed as 0.12.

`Cn1c(C(=O)N[C@H]2CCN(CC(F)F)C2)cc(=O)c2ccccc21`: the “% Inhibition” value is reported as 3% and the Z score is given as -0.46.

For `O=C1NCCCC[C@@H]1N(Cc1cccc(OCCc2ccccc2F)c1)S(=O)(=O)c1cccc2cccnc12`, the “% Inhibition” value turned out to be 6% and the Z score is reported as -0.73.

As for `CC1CCCC(C)N1C(=O)CN[C@H](CO)c1ccccc1` (stereo not given in full), the “% Inhibition” value is on record as -5% and the Z score is recorded as 0.55.

Take `c1ccc2c(c1)CN(c1ncnc3sccc13)CCN2`: the “% Inhibition” value is given as -1% and the Z score is reported as 0.15.

Regarding `Cc1ccc(OCCN)c(C(=O)N[C@H]2CCC[C@H]2Cc2ccc(F)cc2)c1`, the “% Inhibition” value stood at 3% and the Z score is listed as -0.35.

Regarding `CCc1nc(CN(C)[C@H]2CCN(C)C2=O)no1`, the “% Inhibition” value is listed as -9% and the Z score was 1.44.

As to `Cc1cnc(CNc2nc(C(C)C)no2)o1`, the “% Inhibition” value is reported as -3% and the Z score turned out to be 0.38.

Regarding `C=CCN(C(=O)[C@H]1CC(=O)N(C2CCCC2)C1)C1CCCC1`, the “% Inhibition” value is given as -6% and the Z score is recorded as 0.98.

As for `c1ccc2nc(N3CCC4(CC3)CNCCO4)cnc2c1`, the “% Inhibition” value was -3% and the Z score is 0.55.

`O=C(OCCn1ncc2ccccc21)c1cscn1`: the “% Inhibition” value is on record as 0% and the Z score is given as -0.04.

Turning to `COCCN(CCC(=O)NCc1cccnc1)C(=O)c1csc(Nc2ccccc2OC)n1`, the “% Inhibition” value is -2% and the Z score is recorded as 0.21.

Regarding `CN1C(=O)N(c2ccccc2)/C(=N\O)C1(C)C`, the “% Inhibition” value is -8% and the Z score is on record as 0.89.

In the case of `CNC(=O)c1cccc(C(=O)OCCn2ncc3ccccc32)c1`, the “% Inhibition” value was -10% and the Z score stood at 1.42.

For the compound `Cc1cc(NC(=O)CN2CCOCC2)on1`, the “% Inhibition” value was -14% and the Z score worked out at 2.66.

On to `O=C1NCCN(Cc2ccoc2)[C@H]1CC(=O)N1CCCO1`, for which the “% Inhibition” value is reported as -5% and the Z score was 0.8.

With `Oc1ccc(-c2nc(CCCOc3ccc(Cl)cc3Cl)n[nH]2)cc1`, the “% Inhibition” value is -8% and the Z score came out at 1.1.

In the case of `CC(CC1NCCC2(O)CCCCC12)c1ccccc1` (stereo not given), the “% Inhibition” value is -3% and the Z score came to 0.54.

Regarding `COC(=O)[C@]1(C)C[C@H](C(=O)NC2CCC2)[C@H](c2ccc(Cl)cc2)N1C`, the “% Inhibition” value is -11% and the Z score was found to be 1.57.

Take `Cc1nc2ccccc2n1Cc1cc(C(=O)NCCS(C)(=O)=O)no1`: the “% Inhibition” value is listed as -6% and the Z score is listed as 0.82.

As to `CC(=O)Nc1ccc(NC(=O)CC2OCC3CCCCN3C2=O)cc1` (stereo not given), the “% Inhibition” value is -31% and the Z score was 3.59.

In the case of `Cc1csc(CNc2ccc(C(F)(F)F)nc2)n1`, the “% Inhibition” value is recorded as -7% and the Z score turned out to be 0.91.

Take `CN(C)c1cccc(C(=O)N2CCOC[C@@H](CO)C2)c1`: the “% Inhibition” value is listed as -9% and the Z score worked out at 1.69.

As for `Cn1cc(C(=O)C(=O)N(Cc2ccc(F)cc2)C(C)(C)C)cn1`, the “% Inhibition” value is reported as -1% and the Z score came out at 0.14.

In the case of `Cc1nn(C)cc1-c1nn(-c2nc(-c3ccc(Cl)cc3)cc(C(F)(F)F)n2)c(-c2cn(C)nc2C)c1Cl`, the “% Inhibition” value is on record as 35% and the Z score is recorded as -3.93.

`COc1cccc2sc(N(C)CC(=O)Nc3cccc(OC(F)F)c3)nc12`: the “% Inhibition” value is -6% and the Z score is listed as 1.09.

As for `COC(=O)C(C)(C)NC(=O)c1ccnc2[nH]cnc12`, the “% Inhibition” value is -7% and the Z score was 1.46.

Turning to `Cc1ccnc([C@@H](NC(=O)c2ccc(C)n2C(F)F)C2CC2)c1`, the “% Inhibition” value is reported as -15% and the Z score was determined as 1.66.
